Measured values published in the supplement of paper PMC4967469.

How the values were obtained:
Assay in all cases: Viability of human cancer cell lines after 72 h of drug (GDSC screen)
Tretinoin = compound: CC1=C(/C=C/C(C)=C/C=C/C(C)=C/C(=O)O)C(C)(C)CCC1 [Tretinoin]; settings: top dose 10 µM; top dose inferred
Description: (§1)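 Human cancer cell lines in 384-well plates, medium with 10% serum, drug for 72 h over a 256-fold dose range (nine 2-fold or five 4-fold steps up to the top dose). Adherent lines were fixed and stained with the nucleic acid dye Syto60, suspension lines read with resazurin; signal relative to control wells, capped at 0 and 100%. One two-parameter sigmoid per drug and line, fitted in a mixed model over all curves with the slope shared within a line.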

WH-4-023 = compound: COc1ccc(N(C(=O)Oc2c(C)cccc2C)c2ccnc(Nc3ccc(N4CCN(C)CC4)cc3)n2)c(OC)c1 [WH-4-023]; settings: top dose 5.12 µM; top dose inferred
Description: as §1

BX-795 = compound: O=C(NCCCNc1nc(Nc2cccc(NC(=O)N3CCCC3)c2)ncc1I)c1cccs1 [BX-795]; settings: top dose 5 µM; top dose inferred
Description: as §1

GSK690693 = compound: CCn1c(-c2nonc2N)nc2c(C#CC(C)(C)O)ncc(OC[C@H]3CCCNC3)c21 [GSK690693]; settings: top dose 10.24 µM; top dose inferred
Description: as §1

UNC0638 = compound: COc1cc2c(NC3CCN(C(C)C)CC3)nc(C3CCCCC3)nc2cc1OCCCN1CCCC1 [UNC0638]
Description: as §1

SB-505124 = compound: Cc1cccc(-c2[nH]c(C(C)(C)C)nc2-c2ccc3c(c2)OCO3)n1 [SB-505124]; settings: top dose 10 µM; top dose inferred
Description: as §1

PI-103 = compound: Oc1cccc(-c2nc(N3CCOCC3)c3oc4ncccc4c3n2)c1 [PI-103]; settings: top dose 10.24 µM
Description: as §1

[1] = top dose 20 µM, screen: GDSC drug entry 1236, top dose inferred
[2] = top dose 40 µM, screen: GDSC drug entry 245

Row | Cell Line | AUC (Tretinoin) | IC50 (Tretinoin) [µM] | AUC (WH-4-023) | IC50 (WH-4-023) [µM] | AUC (BX-795) | IC50 (BX-795) [µM] | AUC (GSK690693) | IC50 (GSK690693) [µM] | AUC (UNC0638; [1]) | IC50 (UNC0638; [1]) [µM] | AUC (UNC0638; [2]) | IC50 (UNC0638; [2]) [µM] | AUC (SB-505124) | IC50 (SB-505124) [µM] | AUC (PI-103) | IC50 (PI-103) [µM]
1 | 8-MG-BA (glioma, adherent) | 0.985 | > 10 | 0.92 | > 5.12 | 0.791 | 2.1 | 0.89 | > 10.2 | 0.761 | 6.7 | 0.727 | 10.5 | 0.947 | > 10 | 0.445 | 0.457
2 | 697 (lymphoblastic leukaemia, suspension) | 0.923 | > 10 | 0.852 | 2.8 | 0.663 | 0.802 | 0.4 | 0.361 | 0.743 | 5.19 | 0.548 | 3.29 | 0.986 | > 10 | 0.091 | 0.0442
3 | A3-KAW (B-cell lymphoma, suspension) | 0.982 | > 10 | 0.967 | > 5.12 | 0.851 | 2.69 | 0.973 | > 10.2 | 0.626 | 2.58 | 0.659 | 6.24 | 0.947 | > 10 | 0.352 | 0.274
4 | A4-Fuk (B-cell lymphoma, suspension) | 0.882 | > 10 | 0.925 | > 5.12 | 0.815 | 2.9 | 0.955 | > 10.2 | 0.812 | 11.3 | 0.757 | 14.3 | 0.963 | > 10 | 0.857 | 8.93
5 | A101D (melanoma, adherent) | 0.851 | > 10 | 0.85 | > 5.12 | 0.772 | 2.39 | 0.981 | > 10.2 | 0.84 | 18.7 | 0.803 | 25.4 | 0.94 | > 10 | 0.981 | > 10.2
6 | A253 (head and neck, adherent) | 0.981 | > 10 | 0.965 | > 5.12 | 0.963 | > 5 | 0.82 | 5.68 | 0.96 | > 20 | 0.952 | > 40 | 0.988 | > 10 | 0.789 | 4.4
7 | A388 (skin, adherent) | 0.98 | > 10 | 0.878 | > 5.12 | 0.921 | > 5 | 0.961 | > 10.2 | 0.915 | > 20 | 0.903 | > 40 | 0.94 | > 10 | 0.483 | 0.572
8 | A498 (kidney, adherent) | 0.966 | > 10 | 0.397 | 0.146 | 0.861 | > 5 | 0.962 | > 10.2 | 0.935 | > 20 | 0.972 | > 40 | 0.945 | > 10 | 0.977 | > 10.2
9 | A704 (kidney, adherent) | 0.968 | > 10 | 0.125 | 0.0215 | 0.865 | 4.19 | 0.988 | > 10.2 | 0.891 | > 20 |  |  | 0.961 | > 10 | 0.989 | > 10.2
10 | ALL-PO (lymphoblastic leukaemia, suspension) | 0.507 | 0.652 | 0.905 | > 5.12 | 0.346 | 0.114 | 0.818 | 6.19 | 0.811 | 11.4 | 0.509 | 2.65 | 0.971 | > 10 | 0.311 | 0.183
11 | ALL-SIL (T-cell leukaemia, suspension) | 0.987 | > 10 | 0.075 | < 0.02 | 0.749 | 1.43 | 0.549 | 0.852 | 0.642 | 2.91 | 0.492 | 2.39 | 0.956 | > 10 | 0.316 | 0.213
12 | AM-38 (glioma, semi-adherent) | 0.925 | > 10 | 0.988 | > 5.12 | 0.932 | > 5 | 0.98 | > 10.2 | 0.987 | > 20 | 0.749 | 13.2 | 0.986 | > 10 | 0.297 | 0.169
13 | AMO-1 (haematopoietic neoplasm, suspension) | 0.925 | > 10 | 0.991 | > 5.12 | 0.812 | 2.22 | 0.924 | > 10.2 | 0.716 | 4.6 | 0.533 | 3.03 | 0.973 | > 10 | 0.474 | 0.548
14 | ARH-77 (myeloma, suspension) | 0.952 | > 10 | 0.924 | > 5.12 | 0.984 | > 5 | 0.79 | 4.38 | 0.794 | 8.8 | 0.687 | 8.19 | 0.975 | > 10 | 0.176 | 0.0706
15 | ATN-1 (T-cell lymphoblastic leukaemia, suspension) | 0.077 | < 0.0391 | 0.95 | > 5.12 | 0.398 | 0.167 | 0.903 | > 10.2 | 0.805 | 9.29 | 0.711 | 9.43 | 0.976 | > 10 | 0.484 | 0.58
16 | BB30-HNC (head and neck, adherent) | 0.959 | > 10 | 0.711 | 1.24 | 0.838 | 3.28 | 0.929 | > 10.2 |  |  | 0.8 | 18.9 |  |  | 0.51 | 0.682
17 | BB49-HNC (head and neck, adherent) | 0.978 | > 10 | 0.858 | > 5.12 | 0.836 | > 5 | 0.977 | > 10.2 | 0.944 | > 20 | 0.942 | > 40 | 0.951 | > 10 | 0.976 | > 10.2

A lower IC50 marks a more sensitive line; a limit (>, <) means that the fit lies beyond the doses tested. The AUC spans the tested range (256-fold, ending at the top dose) of the same fit; it is 1 without any effect and falls as sensitivity rises. For some assays here: An inferred top dose comes from the curve model; the source does not state it. For some assays here: Drugs with an entry number were screened twice under separate entries, and the two screens often disagree.
